About 14,000 (4.5%) of roughly 310,000 compounds showed an effect of 50% or more. Effects have a minus sign here. Some of the results follow.
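Further: peak tail current of the secondary pulse compared with the same well before compound.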

In this assay the target is human ether-à-go-go-related gene (hERG) potassium channel (human, UniProt Q12809). Nature of the assay: primary screen, population patch clamp on CHO cells stably expressing hERG.
human ether-à-go-go-related gene (hERG) potassium channel, sequence (Q12809 whole entry, looked up): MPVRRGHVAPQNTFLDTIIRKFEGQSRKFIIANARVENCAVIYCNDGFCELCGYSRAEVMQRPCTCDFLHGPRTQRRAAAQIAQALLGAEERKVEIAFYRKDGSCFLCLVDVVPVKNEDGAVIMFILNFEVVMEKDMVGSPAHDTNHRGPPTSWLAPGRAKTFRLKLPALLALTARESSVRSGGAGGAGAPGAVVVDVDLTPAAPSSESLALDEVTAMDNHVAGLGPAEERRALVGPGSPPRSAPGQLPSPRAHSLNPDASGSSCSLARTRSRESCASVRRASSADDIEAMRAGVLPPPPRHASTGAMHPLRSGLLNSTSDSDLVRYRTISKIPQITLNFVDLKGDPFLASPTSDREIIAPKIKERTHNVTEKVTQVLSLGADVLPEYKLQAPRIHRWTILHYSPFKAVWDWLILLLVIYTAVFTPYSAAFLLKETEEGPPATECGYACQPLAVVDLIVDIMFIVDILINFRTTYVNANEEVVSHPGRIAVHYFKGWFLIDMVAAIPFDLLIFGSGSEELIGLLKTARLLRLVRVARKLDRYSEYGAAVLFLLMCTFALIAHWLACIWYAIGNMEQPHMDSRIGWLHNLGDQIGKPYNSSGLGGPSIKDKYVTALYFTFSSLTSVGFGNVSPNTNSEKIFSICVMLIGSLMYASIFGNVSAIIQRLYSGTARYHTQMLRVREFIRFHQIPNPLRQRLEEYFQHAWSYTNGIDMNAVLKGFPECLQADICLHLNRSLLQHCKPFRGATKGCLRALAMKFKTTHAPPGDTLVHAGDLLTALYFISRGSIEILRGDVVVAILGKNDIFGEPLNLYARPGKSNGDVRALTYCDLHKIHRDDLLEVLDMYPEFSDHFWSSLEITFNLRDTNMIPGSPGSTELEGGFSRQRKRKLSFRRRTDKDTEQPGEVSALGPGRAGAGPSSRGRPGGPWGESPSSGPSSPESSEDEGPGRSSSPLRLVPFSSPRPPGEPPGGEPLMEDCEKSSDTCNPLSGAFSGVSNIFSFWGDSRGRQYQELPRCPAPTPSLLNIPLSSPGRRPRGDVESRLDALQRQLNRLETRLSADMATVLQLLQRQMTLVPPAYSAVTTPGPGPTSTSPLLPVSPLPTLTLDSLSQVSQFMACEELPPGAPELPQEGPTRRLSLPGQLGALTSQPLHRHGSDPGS
With `CN1C(=O)NC(c2cccc(F)c2)C2=C1CC(C)(C)CC2=O` (stereo not drawn), the “hERG current change (%, negative = inhibition) at 10uM” value is on record as 15.3%. Under `COc1ccc2nc(SC)c(C#N)cc2c1` stands 15.1%; under `Cc1ccc(NC(=O)Nc2cccc([N+](=O)[O-])c2)nc1`, 23.8%. Under `CC(=O)c1cccc(NC(=O)COC(=O)c2cccs2)c1` stands 17.2%; under `COc1ccc(/C=N/n2cncn2)cc1CSc1ccccn1`, -14%; under `Cc1cccc(N(CC(=O)NC(C)(C)C)C(=O)CS(=O)CC(=O)Nc2ccc(F)cc2)c1` (stereo not drawn), 27.5%.

Turning to `CCOc1cc(/C=C(/NC(C)=O)C(=O)O)cc(Cl)c1OCc1cccc(Br)c1`, the “hERG current change (%, negative = inhibition) at 10uM” value amounted to 6.11%. Consider `CCOC(=O)[C@@H]1[C@H]2COc3ccccc3[C@H]2N2C(=O)N(c3ccc(Cl)cc3)C(=O)[C@]12C`, for which the “hERG current change (%, negative = inhibition) at 10uM” value was 2.73%. Under `O=C(Nc1nnc(SCC(=O)N2CCCc3ccccc32)s1)c1ccccc1` stands 0.924%. Next, `CN(C)CCOC(=O)c1ccc2c(c1)S(=O)(=O)c1ccccc1C2=O.Cl`: -6.3%. Next, `CC1(C)OC(=O)C(=CNC(CCC(N)=O)C(=O)O)C(=O)O1` (stereo not drawn): 7.62%.

In the case of `CCCn1c2c(c(O)c(C(=O)Nc3nc4ccccc4s3)c1=O)CCCC2`, the “hERG current change (%, negative = inhibition) at 10uM” value amounted to 43.8%. Next, `COc1ccc(-c2nc(N)n[nH]2)cc1OC`: 18.9%; `c1ccc(C2(CN3CCNC[C@H]3Cc3cccc4ccccc34)CC2)cc1`: -8.52%.

As for `CCOC(=O)N1CCC(n2c(SCC(=O)NCc3ccccc3)nc3ccccc3c2=O)CC1`, the “hERG current change (%, negative = inhibition) at 10uM” value is -46.6%. Under `CC1CC1C(=O)OCC(=O)NC(=O)c1ccccc1` (stereo not drawn) stands 6.93%. With `COc1cccc(CN2CCNC(=O)C2CC(=O)NCCn2cccn2)c1OC` (stereo not drawn), the “hERG current change (%, negative = inhibition) at 10uM” value worked out at 8.5%. Next, `Cc1cccc(NC(=O)CSc2nc3[nH]c(=O)cc(O)c3s2)c1`: -0.789%; `COc1ccc(CNC(=O)CS(=O)Cc2nc(-c3ccc(C)cc3)oc2C)cc1` (stereo not drawn): -20.1%. For the molecule `COc1cc(S(=O)(=O)N2CCCCC2)ccc1NC(=O)Cc1ccccc1`, the “hERG current change (%, negative = inhibition) at 10uM” value is on record as 12.3%. As to `CC(C)[C@H]1C(=O)Nc2ccccc2N1C(=O)N[C@@H](Cc1ccccc1)C(=O)N[C@H](C(=O)O)c1ccccc1`, the “hERG current change (%, negative = inhibition) at 10uM” value turned out to be 17.7%. Next, `O=C(NCCc1ccccc1Cl)C1CCC(=O)N(C2CCCCCC2)C1` (stereo not drawn): -6.22%.

For `CCC(Cc1c(I)cc(I)c(N)c1I)C(=O)O` (stereo not drawn), the “hERG current change (%, negative = inhibition) at 10uM” value is reported as -0.155%. Next, `COc1ccc(NC(=S)N2CCC(NC(=O)c3cccc(F)c3)CC2)cc1`: -16.7%.
